Test results: publication PMC4336329 (PLoS ONE, 2015)
Screen size: about 310,000 compounds; about 2,200 (0.71%) showed an effect of 50% or more. Effects have a minus sign here. The list shows a part of the results.

molecular target: human ether-à-go-go-related gene (hERG) potassium channel (human, UniProt Q12809); assay: primary screen, population patch clamp on CHO cells stably expressing hERG
Sequence (Q12809 whole entry, looked up): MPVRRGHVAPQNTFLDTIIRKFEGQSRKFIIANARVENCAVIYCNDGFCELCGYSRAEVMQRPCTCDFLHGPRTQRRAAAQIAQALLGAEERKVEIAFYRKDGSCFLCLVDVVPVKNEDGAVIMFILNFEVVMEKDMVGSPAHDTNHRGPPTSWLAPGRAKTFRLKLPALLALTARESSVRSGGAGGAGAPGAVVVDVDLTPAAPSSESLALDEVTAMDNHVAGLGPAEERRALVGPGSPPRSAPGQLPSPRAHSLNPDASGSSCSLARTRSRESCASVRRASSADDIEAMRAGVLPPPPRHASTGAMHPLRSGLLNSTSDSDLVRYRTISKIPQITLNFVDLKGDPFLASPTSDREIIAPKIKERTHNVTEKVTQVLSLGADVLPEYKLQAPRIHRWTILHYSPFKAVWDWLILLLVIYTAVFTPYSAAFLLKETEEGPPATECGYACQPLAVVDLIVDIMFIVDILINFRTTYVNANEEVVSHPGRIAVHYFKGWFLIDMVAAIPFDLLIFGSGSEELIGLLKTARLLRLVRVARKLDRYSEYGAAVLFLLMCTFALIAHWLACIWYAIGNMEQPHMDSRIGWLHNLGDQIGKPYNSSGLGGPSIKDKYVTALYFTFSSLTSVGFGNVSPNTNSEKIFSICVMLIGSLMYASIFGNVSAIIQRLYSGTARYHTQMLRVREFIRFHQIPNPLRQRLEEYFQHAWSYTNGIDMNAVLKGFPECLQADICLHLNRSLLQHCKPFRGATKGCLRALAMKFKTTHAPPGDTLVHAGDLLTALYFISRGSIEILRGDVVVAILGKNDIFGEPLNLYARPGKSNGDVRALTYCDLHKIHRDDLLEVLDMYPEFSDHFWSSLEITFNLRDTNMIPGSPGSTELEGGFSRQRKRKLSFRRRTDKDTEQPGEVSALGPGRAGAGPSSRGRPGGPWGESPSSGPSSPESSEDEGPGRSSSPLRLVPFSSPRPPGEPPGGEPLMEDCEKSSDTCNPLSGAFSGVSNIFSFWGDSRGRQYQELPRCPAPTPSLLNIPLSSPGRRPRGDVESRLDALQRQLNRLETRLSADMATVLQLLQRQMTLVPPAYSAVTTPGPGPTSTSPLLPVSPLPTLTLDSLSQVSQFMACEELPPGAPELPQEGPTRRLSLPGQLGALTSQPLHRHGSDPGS

| Compound | hERG current change (%, negative = inhibition) at 1uM [%] |
| --- | --- |
| COc1ccc(CCN2C(=O)c3cccc4c(C(=O)N5CCCCC5)ccc(c34)C2=O)cc1OC | 12 |
| CC1CCN(S(=O)(=O)N2CCC(C(=O)NCCC3=CCCCC3)CC2)CC1 | 11.6 |
| O=C(/C=C/Nc1cccc(C(F)(F)F)c1)C(F)(F)F | 1.89 |
| COc1ccc2oc(=O)c(C(=O)Nc3ccccc3C)cc2c1 | 11.4 |
| Cc1cc2ncn(CCC(=O)NC(C)(C)C)c2cc1C | 8.99 |
| CC(C)(C)c1cc[n+](C2=C([O-])c3ccccc3C(=O)/C2=N\S(=O)(=O)c2ccccc2)cc1 | 9.02 |
| CCC(C)c1c(O)nc(SCC(=O)N2CCCCC2)[nH]c1=O (centres unmarked) | 12.6 |
| CCCC(=O)NNC(=O)CCC(=O)Nc1ccccc1Cl | 18.3 |
| CN1CCN(C(=O)c2ccccc2NC(=O)Cc2ccccc2)CC1 | -1.37 |
| CCOc1ccc(N/C=C/C(=O)c2ccc(OC)cc2)c([N+](=O)[O-])c1 | 19.1 |
| O=[N+]([O-])c1ccc(N2CCN(c3ccc(Cl)nn3)CC2)c(Cl)c1 | -9.29 |
| O=C(C1CCN(Cc2ccc(F)cc2)CC1)N(CCO)Cc1ccccc1 | 10.4 |
| Cc1cc(/C=N/NC(=O)c2ccc(O)cc2)c(C)n1C1CC1 | 19.7 |
| Cc1cc(C)c(OCC(=O)NCCCn2nc(C)cc2C)c(C)c1 | 6.92 |
| CCN(CC(=O)Nc1c(F)cccc1F)C(=O)C1(c2ccccc2)CC1 | -1.16 |
| O=C(CSc1ncccn1)NC(=O)c1ccccc1 | 13.3 |
| Cc1[nH]c2ccccc2c1/C=N/Nc1nc(N2CCCCC2)nc(N2CCCCC2)n1 | 9.92 |
| O=C(COC(=O)c1ccc(S(=O)(=O)N2CCCCC2)cc1)Nc1ccccc1 | 9.49 |
| c1ccc(C2=Nn3c(nnc3-c3n[nH]c4c3CCC4)SC2)cc1 | -10.2 |
| CN(C)S(=O)(=O)c1ccc(S(=O)(=O)N2CCN(CCC#N)CC2)cc1 | 2.89 |
| COc1ccc(C(C)=O)cc1CSc1nc2nc(C)cc(C)n2n1 | 0.532 |
| C=C1CCN([C@@H](CC(C)C)C(=O)Nc2nc3ccc(Cl)cc3s2)S(=O)(=O)c2ccccc21 | 7.6 |
| COc1ccc(CCNC(=O)c2cc(S(=O)(=O)N3CCC4(CC3)OCCO4)ccc2F)cc1OC | 8.01 |

| Compound | hERG current change (%, negative = inhibition) at 1uM [%] |
| --- | --- |
| c1ccc(-c2ccccn2)nc1 | -1.1 |
| Cc1ccc2nc(N3CC(=O)Nc4ccccc43)nc(-c3ccccc3)c2c1 | 11.8 |
| CC(C)N1CCN(Cc2cccc(-n3cccn3)c2)CC1CCO (centres unmarked) | -7.17 |
| CC(NC(=O)Cn1cccc1C(=O)c1ccccc1)c1ccc2c(c1)OCCO2 (centres unmarked) | 13.9 |
| COCc1ccc(CN2CCc3c([nH]c4ccccc34)C2C(C)(C)C)o1 (centres unmarked) | 10 |
| CCCCNC(=O)CN1C(=O)NC(CCc2ccccc2)C1=O (centres unmarked) | 19.8 |
| CCOc1nc(-c2ccccc2)ccc1-c1noc(-c2cccnc2)n1 | 7.07 |
| CC(=O)N1CCN(S(=O)(=O)c2cccc(C(=O)N(Cc3ccccc3)c3ccc(C)cc3)c2)CC1 | 1.66 |
| COCC(C)NC(=O)C1CC(=O)N(c2ccc(C)cc2)C1 (centres unmarked) | 17.1 |
| Cn1c(=O)c2c(nc(N3CCN(c4ccccn4)CC3)n2Cc2ccc(Cl)cc2Cl)n(C)c1=O | 1.62 |
| O=C(NCCc1ccccn1)c1ccc(NS(=O)(=O)c2ccc(F)cc2)cc1 | 8.99 |
| CCN(CC(=O)Nc1c(F)cccc1F)C(=O)c1cc(-c2cccs2)nn1-c1ccccc1 | 1.08 |
| CCOC(=O)c1ccc(OCC(=O)c2ccc(O)cc2O)cc1 | -6.35 |
| COc1cc(/C=C2/C(=O)N=C(N)N2C)cc(OC)c1OC | 5.88 |
| CCN(C(=O)CSc1nnc(-c2ccncc2)n1Cc1ccccc1)C1CCS(=O)(=O)C1 (centres unmarked) | 1.66 |
| CC1CCCCN1C(=O)c1ccc(S(=O)(=O)N2CCCCC2C)cc1 (centres unmarked) | 3.05 |
| COc1ccc(NC(=O)CSc2nc(N)c(C(=O)Nc3ccc(N(C)C)cc3)s2)cc1 | 5.56 |
| CCCCNC(=S)N1CCn2cccc2C1c1ccccc1 (centres unmarked) | 12.9 |
| CC1CN(Cc2cn(C)nc2-c2ccc(Oc3ccccc3)cc2)CCN1C (centres unmarked) | -14.4 |
| COC(=O)c1cccc(/C=N/NC(N)=S)c1O | 8.31 |
| CCn1ncc(Cl)c1C(=O)Nc1ccc2c(c1)CCC2 | 14.5 |
| COc1ccc(-c2cc(C(F)(F)F)nc(N3CCCCC3)n2)cc1OC | 9.98 |
| Cc1cc(C)cc(C(=O)N2CCN=C2c2ccccc2)c1 | 13.2 |

| Compound | hERG current change (%, negative = inhibition) at 1uM [%] |
| --- | --- |
| S=c1sc2c(N3CCOCC3)ncnc2n1-c1ccccc1 | -2.13 |
| COC(CNC(=O)C(=O)Nc1cc2c3c(c1)CC(=O)N3CCC2)OC | 22.4 |
| COc1ccc(OC)c(NC(=S)N2CCN(c3ccccn3)CC2)c1 | 8.1 |
| CC(=O)COc1ccccc1OC(=O)c1ccco1 | -1.08 |
| Cn1c(NC(=O)C(C)(C)Oc2ccc(Cl)cc2)cc(=O)n(C)c1=O | 4.49 |
| Cc1nnc(NC(=O)CSc2nnc(CC(=O)Nc3ccccc3Cl)n2C)s1 | 18.1 |
| O=C(COc1ccc(Br)cc1)NCc1ccccn1 | 3.98 |
| CN(Cc1ccccc1)C(=S)NC(=O)c1cccs1 | 11.3 |
| O=C(/C=C/c1ccc(Cl)cc1)Nc1ccccc1N1CCOCC1 | 10.4 |
| Cc1cc(=O)oc2cc(NS(=O)(=O)c3ccccc3)ccc12 | 15.6 |
| COc1ccc(C(=O)N/C(=C\c2cn(S(=O)(=O)N(C)C)c3ccccc23)C(=O)NCCN2CCOCC2)cc1OC | 6.52 |
| CC(C)C(NC(=O)c1ccccc1NC(=O)c1ccccc1)C(=O)NCCCn1ccnc1 (centres unmarked) | 14.1 |
| Cc1ccc(C)c(N2CC(C(=O)O)CC2=O)c1 (centres unmarked) | 6.38 |
| Cc1cc(C(F)(F)F)n(-c2nc(C(=O)NN)cs2)n1 | 0.755 |
| C=CCNC(=O)c1onc(CSc2cc(C)cc(C)c2)c1C(=O)NCC=C | 16.3 |
| Cc1nn(Cc2nnc(SCC(=O)Nc3ccc(Cl)cc3)n2C)c(C)c1[N+](=O)[O-] | -1.03 |
| O=C(CN1C(=O)NC(c2ccccc2)(c2ccccc2)C1=O)NCc1cccs1 | 10.1 |
| CC(C)CCNC(=S)Nc1ccccn1 | 3.6 |
| CCOC(=O)c1nnn(-c2nonc2OC)c1-c1ccccc1 | 6.57 |
| CCOc1ccc2nc(N(CCN(C)C)C(=O)c3ccc4c(c3)CCCC4)sc2c1.Cl | 0.706 |
| COc1ccc(C(=O)COC(=O)C(CCSC)NC(=O)COc2ccccc2)c(OC)c1 (centres unmarked) | 3.29 |
| Cc1cccc(Cn2c(=O)n(CCCC(=O)NCc3ccco3)c(=O)c3ccccc32)c1 | -4.67 |
| CCN(CC)c1ccc(S(=O)(=O)N2CCOCC2)cc1NC(=O)CSc1nncs1 | -2.21 |

| Compound | hERG current change (%, negative = inhibition) at 1uM [%] |
| --- | --- |
| COc1cc(N2C(=O)c3ccccc3C2=O)c(Cl)cc1C(=O)OCC(=O)N(C)C | 6.05 |
| C#CCSc1nnnn1-c1ccc(Br)c(C)c1 | 8.02 |
| Cc1cc2ncn(-c3nnnn3-c3ccccc3)c2cc1C | 5.53 |
| Cc1ccc(S(=O)(=O)N(c2ccc(Br)cc2)C2C=CS(=O)(=O)C2)cc1 (centres unmarked) | 15.8 |
| Cc1ccc(N(CC(=O)N2CCN(c3ccccc3F)CC2)S(=O)(=O)c2c(C)noc2C)cc1 | 15.6 |
| CCC(=O)N1CCN(CCN=CC2=C(O)CC(c3cccs3)CC2=O)CC1 (centres unmarked) | 9.17 |
| O=C(Cc1ccccc1)Nc1nonc1NC(=O)c1ccccc1 | 11.3 |
| c1ccc(CSc2ncn(-c3ccccc3)n2)cc1 | 7.84 |
| O=C1CC(/C=C/c2ccc(Cl)cc2)=Nc2ccccc2N1 | 12.5 |
| CN1c2ccsc2/C(=N/NC(=O)c2c(F)cccc2F)CS1(=O)=O | 6.95 |
| CCSc1nnc(NC(=O)[C@@H](NC(=O)c2ccccc2)C(C)C)s1 | 16.7 |
| CCCCOc1ccc(/C(O)=C2/C(=O)C(=O)N(CCCOC)C2c2ccncc2)cc1 (centres unmarked) | 12.6 |
| Cc1cc(Nc2ccc(Cl)cc2)nc(N2CCOCC2)n1 | 15.7 |
| Cc1cc(C)c2nc(SC3CCOC3=O)cc(C)c2c1 (centres unmarked) | 6.67 |
| CC1Cc2ccccc2N1C(=O)CN1CCCCC1.Cl (centres unmarked) | 13.4 |
| Cl.Clc1ccc(C2=NNC(=NCC3CCCO3)SC2)cc1 (centres unmarked) | 11.2 |
| O/N=C(/CCc1ccccc1)c1ccc2c(c1)OCCO2 | 2.98 |
| CC(=O)N1CCN(C(=O)c2oc3ccccc3c2C)CC1 | 8.69 |
| O=C(COC(=O)c1ccccc1C(=O)c1ccc(Cl)cc1)NCCc1ccccc1 | 6.87 |
| Cn1c(CN2CCOCC2)nnc1SCc1ccc(C#N)cc1 | 13.1 |
